# Reference: PubChem BioAssay AID651820 (National Center for Advancing Translational Sciences (NCATS), 2012)
# Hit rate of the full screen: of about 340,000 compounds, about 12,000 (3.5%) were called active. Inconclusive results, whose numbers are uncertain, are shown with a selection of clear calls. Calls follow the shape of the dose curve; as a rule, active = well fitted inhibition curve with a large enough effect; inconclusive = small, poorly fitted or top-dose-only effect, or another doubt; inactive = no such curve, though single readings can be large or run the other way. No potency is given beside an inconclusive call; the fits are too rough.
# Experiment: qHTS Assay for Inhibitors of Hepatitis C Virus (HCV)
# Details: Huh7.5.1 HCVcc-Cre (HCVcc is cell-culture hepatitis C virus) infection, luciferase reporter, 44 h; activity change, negative = inhibition: at 41.8 µM (top of the series) unless noted
# Summary of the method: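 After 44 h co-culture of compound, cells and HCVcc-Cre (~0.5 moi), substrate is added for 15 min at room temperature and luciferase measured over 15 sec. Cells were seeded at 1,000/well and pre-cultured 4 h.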
# % is scaled to controls: 0 for no effect and ±100 for the full control effect; potency is read from the fitted curve at half-maximal effect; tags tell the direction and shape of the fitted curve.
SMILES,Potency,"activity change, negative = inhibition"
c1csc(C(c2nnnn2C2CCCC2)N2CCCC3(CCCCC3)C2)c1 (centres undefined),"inconclusive [inhibitor, single point]",–
C=CCn1c2ccccc2c2nnc(SCC(=O)Nc3cc(C)on3)nc21,"inconclusive [inhibitor, partial curve, poor fit]",–
CCN1CCN(Cc2ccc(OCc3ccccc3)cc2)CC1,"inconclusive [inhibitor, partial curve]",–
C/C(=N\NC(=O)CNC(=O)C(c1ccccc1)c1ccccc1)c1ccc(C(C)(C)C)cc1,inactive,–
C=C(C)[C@H]1CC=C(C)/C(=N/NC(=O)CNc2ccccc2OC)C1,"inconclusive [inhibitor, partial curve]",–
CCN1CCN(C(c2ccccn2)c2c(NC(=O)c3ccccc3)sc(C)c2C)CC1 (centres undefined),"inconclusive [inhibitor, single point]",–
CCOC(=O)/C(C#N)=C/Nc1cc(C(C)(C)C)sc1C(C)=O,"inconclusive [inhibitor, partial curve]",–
NCC(=O)NCC(=O)NC[C@H]1O[C@@H](n2ccc(=O)[nH]c2=O)[C@H](O)[C@@H]1O,"inconclusive [inhibitor, single point]",–
CN1C2CCC1CC(OC(c1ccccc1)c1ccccc1N)C2 (centres undefined),"inconclusive [inhibitor, partial curve]",–
CCCc1nc2oc3c(OCC)ncnc3c2c2c1COC(C)(C)C2,"inconclusive [inhibitor, partial curve]",–
CC(C)c1ccc(-c2nnc(N)s2)cc1,inactive,–
Nc1nonc1C(=O)NCCNCc1c(OCc2ccccc2F)ccc2ccccc12,active: 14.1 µM,–
COc1ccc(N2CC(C)Cn3c2nc2c3c(=O)n(Cc3ccc(F)cc3)c(=O)n2C)c(OC)c1 (centres undefined),"inconclusive [inhibitor, single point]",–
CN(C)c1ccc(/C=C/c2cc[n+](C)cc2)cc1,active: 1.78 µM,–
O=C(/C=C/c1ccc(Cl)cc1)NCCN1CCOCC1,"inconclusive [inhibitor, single point]",–
NC(=O)C1Cc2ccccc2CN1C(=O)c1nn(Cc2ccccc2)c(=O)c2ccccc12 (centres undefined),inactive,–
O=C(O)C(CO)N=Cc1c(O)c2ccccc2oc1=O (centres undefined),"inconclusive [inhibitor, single point]",–
CN1/C(=C\C(=O)c2oc3ccccc3c2N)C(C)(C)c2ccccc21,"inconclusive [inhibitor, single point]",–
CCC/C(O)=C1\C(=O)CC(c2ccccc2)CC1=NCCc1c(C)[nH]c2ccc(C)cc12 (centres undefined),–,inactive: -2.92% [at 8.37 µM]
